This is an account of results in patent publication US20220177547A1 (KYUNGPOOK NATIONAL UNIVERSITY INDUSTRY ACADEMIC COOPERATION …, published 2022).

One may read the Kd as the concentration at which binding is half-saturated. In general, koff refers to the rate constant with which the complex falls apart. A high value points to fast dissociation. Usually kon stands for a measure of how fast the partners come together.

This assay addresses T1, TRAIL (TNF-related apoptosis inducing ligand) (human, UniProt P50591 114-281, limits assumed).
T1 construct: also called TRAIL alone; native TRAIL
In words: SPR, Dr5 coupled to gold sensor chip, TRAIL flowed 400 nM to 25 nM. The protocol:
The TRAIL receptor protein Dr5 was coupled to a surface of a gold sensor chip by flowing it on the surface of the gold sensor chip for surface resonance plasma (SPR) activated with NHS-EDC, and blocked with ethanolamine. The binding kinetics were analyzed by flowing TRAIL-ATNC dissolved in TBS from 8.33 nM to 0.52 nM by half, and TRAIL from 400 nM to 25 nM by half on the TRAIL receptor-coupled gold sensor chip, respectively. The right channel, which was not coated with Dr5, was used as a control (or reference).
Background: SPR reads the build-up and loss of mass on a sensor chip optically.

B1: TRAIL receptor protein Dr5 (receptor)
chain: not shown
notes: Purified protein amine-coupled (NHS-EDC) to the SPR chip; The construct is not described
The molecule B1 came in with a Kd of 58.3 nM, an off-rate constant (koff) of 0.0015 s⁻¹ and an on-rate constant (kon) of 25700 M⁻¹ s⁻¹.
